# Measured values as given in PMC6919601, “Identification of Plasmodium dipeptidyl aminopeptidase allosteric inhibitors by high throughput screening” (PLoS ONE, 2019).
# Values joined by “and” are separate entries in the source; they are usually repeats but may differ in a detail not shown here. Equal values may be shown once. Screen size: about 110,000 compounds; about 230 (0.21%) showed an effect of 50% or more. This is one part of the list.
# Molecular target: DPAP1 (Plasmodium falciparum, UniProt Q8IIJ9)
# Sequence (Q8IIJ9 whole entry, looked up): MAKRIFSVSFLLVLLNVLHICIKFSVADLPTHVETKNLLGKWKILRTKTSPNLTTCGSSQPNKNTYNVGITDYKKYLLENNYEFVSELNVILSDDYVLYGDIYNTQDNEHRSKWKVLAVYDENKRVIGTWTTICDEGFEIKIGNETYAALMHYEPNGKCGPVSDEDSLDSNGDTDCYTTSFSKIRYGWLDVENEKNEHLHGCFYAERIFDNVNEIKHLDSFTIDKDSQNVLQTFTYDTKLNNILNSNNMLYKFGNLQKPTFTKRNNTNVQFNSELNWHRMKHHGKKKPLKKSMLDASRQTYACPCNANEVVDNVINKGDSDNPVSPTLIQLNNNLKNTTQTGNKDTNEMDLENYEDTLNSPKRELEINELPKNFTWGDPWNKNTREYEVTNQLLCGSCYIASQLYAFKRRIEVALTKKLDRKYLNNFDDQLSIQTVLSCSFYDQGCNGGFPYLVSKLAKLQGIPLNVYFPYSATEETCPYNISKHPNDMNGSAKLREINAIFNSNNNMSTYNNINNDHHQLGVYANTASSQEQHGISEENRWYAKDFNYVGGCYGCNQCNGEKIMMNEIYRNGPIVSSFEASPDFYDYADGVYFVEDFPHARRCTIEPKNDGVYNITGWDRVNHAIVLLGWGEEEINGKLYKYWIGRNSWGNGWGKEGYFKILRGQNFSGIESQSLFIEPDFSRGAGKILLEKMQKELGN
# Experiment: primary screen, percent inhibition; read by cleavage of a fluorogenic dipeptide substrate; higher = more effect of the substance
# Design: species or system P. falciparum D10 trophozoite lysates; single well
# 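Also: 30 min substrate incubation versus DMSO and 10 µM JCP410 controls.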
row,SMILES,% Inhibition @ 10 uM
1,CCc1nc2ccc(C(=O)N3CCc4ccccc4C3)cc2nc1CC,-0.0785%
2,C=CCOc1ccc(C(=O)C2=C(O)C(=O)N(CCN(CC)CC)C2c2ccc(Cl)cc2)cc1C (stereo not drawn),3.15%
3,O=S(=O)(c1ccccc1)N1C2C=CC(C2)C1(C(F)(F)F)C(F)(F)F (stereo not drawn),-1.72%
4,Cc1onc(-c2ccccc2Cl)c1C(=O)NC(C)Cc1ccccc1 (stereo not drawn),-4.93%
5,COc1ccc(N/C=C\C(=O)c2ccc3c(c2)OCO3)cc1,0.777%
6,COc1ccc2c(c1OC)C(=O)N(c1cccc(/C=C/C(=O)O)c1)C2,7.79%
7,CC(=O)C(C(C)=O)=C1SCC(c2ccccc2)S1 (stereo not drawn),-10.7%
8,Cn1c(=O)c2c(nc(SCC(=O)O)n2Cc2cccc(Cl)c2)n(C)c1=O,-0.725%
9,Cn1c(NC(=O)c2ccc(C(C)(C)C)cc2)cc(=O)n(C)c1=O,5.26%
10,CC(CCc1ccccc1)NCc1c(C(=O)O)[nH]c2ccccc12 (stereo not drawn),5.09%
11,CC1CCN(C(=O)CCc2nc(CN3CCN(C(=O)c4cc(-c5cccs5)on4)CC3)no2)CC1,2.96%
12,COCCN1C(=O)C(O)=C(C(C)=O)C1c1ccc(Cl)cc1Cl (stereo not drawn),-3.21%
13,CN1CCC(N2CCCCC2CO)CC1 (stereo not drawn),-3.27%
14,CCSc1nnc2n(-c3ccccc3)c3ccccc3n12,-2.29%
15,N#Cc1ccc(Oc2ccccc2N2C(=O)c3ccccc3C2=O)cc1,-3.24%
16,NC(=O)C1CCCN(Cc2ccc(Br)cc2)C1 (stereo not drawn),-2.95%
17,CN1CCN(C(=O)C2=CC(c3ccco3)=NS(=O)(=O)N2C)CC1,0.655%
18,Cc1nn(CC(=O)NCCN2CCOCC2)c2ccccc12,-1.11%
19,Cc1nn(-c2ccccc2)c(C)c1-c1ccccc1O,2.79%
20,O=C(Cc1ccc(-c2ccccc2)cc1)N1CCN(c2ccccn2)CC1,-0.95%
21,CC1CCC2(C)c3c(c4ccccc4n3C)CCN2C1 (stereo not drawn),2.05%
22,CN1CCC(N(C)Cc2ccc(F)cc2)CC1,-5.57%
23,COc1ccccc1CNC1CCCCC1C (stereo not drawn),1.13%
24,COc1cc(-c2cc(C(F)(F)F)n3ncc(C(=O)N4CCCCCC4)c3n2)cc(OC)c1OC,5.39% and -0.884%
25,O=C(Nc1ccccc1)c1cccc(S(=O)(=O)N2CCN(c3ccccc3)CC2)c1,-0.865%

row,SMILES,% Inhibition @ 10 uM
1,COC(=O)c1ccc(C(=O)OCc2nc3cc4ccccc4cc3[nH]2)cc1,11.8%
2,Cc1ccc(OC(C)C(=O)Nc2ccccc2Br)cc1 (stereo not drawn),-6.57%
3,COCc1nc2ccccc2n1CCCOc1ccccc1,2.73%
4,Cc1c(C(=O)NCc2ccc3c(c2)OCO3)oc2ccc(S(=O)(=O)N3CCCCCC3)cc12,4.79%
5,Cc1ccc(Cn2c(/N=C/c3ccccc3O)nc3ccccc32)cc1,20.3%
6,COCCNc1nc2c(c(=O)n(Cc3ccc(F)cc3)c(=O)n2C)n1C,0.0289%
7,Cc1cc2c(cc1Br)NC(=O)C21C(C#N)=C(N)Oc2c1c(=O)oc1ccccc21 (stereo not drawn),-2.36%
8,CCOC(=O)C1=C(C)N(c2ccc(OCC)cc2)C(=O)/C1=C\c1cccc2ccccc12,4.68%
9,COCCCNc1nc2c(c(=O)n(C)c(=O)n2C)n1Cc1ccc(C)cc1,-0.339%
10,O=C(Cc1ccc(-n2c(-c3ccccc3)nc3cccnc32)cc1)NCc1ccco1,2.32%
11,Cc1cccc(NC(=O)CS(=O)(=O)c2ccc3ccccc3c2)c1,-8.48%
12,O=C(c1ccccc1)c1ccc2c(c1)C(=O)N(c1ccccc1C(=O)O)C2=O,1.65%
13,COc1cc(OC)cc(C2C(C#N)=C(N)Oc3[nH]nc(C)c32)c1 (stereo not drawn),-2.56%
14,O=C(COC(=O)c1ccc(Oc2ccc(O)cc2)cc1)c1ccccc1,9.31%
15,NC(=O)c1cc(S(=O)(=O)N2CCCCC2)ccc1Cl,5.06%
16,COc1ccccc1/C=C/c1nn2c(Cc3ccccc3)nnc2s1,14.7%
17,CCc1ccc(CNC(=O)CNC(=O)c2cccs2)cc1,-4.97%
18,O=C(OCc1ccccc1)/C(=C/C=C/c1ccccc1)NC(=O)c1ccccc1,-6.69%
19,O=c1oc2ccccc2cc1-c1nc(-c2cccs2)no1,7.52%
20,O=C(CCNS(=O)(=O)c1ccc2nc(O)ccc2c1)NCCC1=CCCCC1,2.73%
21,Cc1ccc2nc(NCc3ccc(F)cc3)c3nnnn3c2c1,2.42%
22,COc1ccc(CC(=O)Nc2cccc(C)c2)cc1,1.28%
23,CN1CCN(C(=O)c2oc3ccccc3c2NC(=O)c2ccco2)CC1,-8.37%
24,CCOc1cc2c(cc1OCC)C1C(C(=O)N3CCN(C)CC3)c3ccccc3C(=O)N1CC2 (stereo not drawn),0.166%
25,Cc1ccccc1-c1nc2ccccc2c(=O)o1,3.05%

row,SMILES,% Inhibition @ 10 uM
1,NC(=O)CSc1nc(SCC(N)=O)c2sc3nc4ccccc4n3c2n1,-0.996%
2,COc1cc(OC)cc(C2C(C#N)=C(N)Oc3[nH]nc(-c4ccc(F)cc4)c32)c1 (stereo not drawn),0.777%
3,CCOc1ccc(-n2c(C)cc(/C=C3\C(=N)N4N=C(S(=O)(=O)CC)SC4=NC3=O)c2C)cc1,8.11%
4,Cc1nc2cc(-c3ccc(Cl)cc3)nn2c(C)c1CCC(=O)Nc1cccnc1,4.54%
5,CCn1c(C)c(C)c2cc(C(=O)NCCCN3CCN(C)CC3)ccc21,-10.3%
6,Cc1nc(Nc2nc3ccccc3o2)ncc1C(=O)Nc1ccc(F)cc1,-0.884%
7,COc1ccccc1CNC(=O)Cc1c(C)c2ccc(O)cc2oc1=O,0.895%
8,COc1ccc(CN2C(=O)c3cccnc3C2=O)cc1S(=O)(=O)N1CCc2ccccc2C1,0.0057%
9,CCOC(=O)N1CCN(C(=O)c2cc3c(-c4cccc(OC)c4)nn(C)c3s2)CC1,1.23%
10,Cc1ccc(S(=O)(=O)N(CC(=O)N2CCCC2)c2ccc(Cl)cc2C)cc1,-0.496%
11,CCN(CC)C(=O)C1CCCN(Cc2ccsc2)C1 (stereo not drawn),0.605%
12,Cc1ccc(-n2nc3ncccc3c2O)cc1C,-5.5%
13,COC(=O)Nc1nc2cc3c(cc2s1)OCCO3,-1.91%
14,O=C1NC(=S)N/C1=C\c1cccc([N+](=O)[O-])c1,3.25%
15,Cc1cc(Br)ccc1OCC(=O)Nc1ccccc1C#N,2.48%
16,O=S1(=O)Nc2c(ccc3cccnc23)-c2ccccc21,1.42%
17,O=c1[nH]c(=O)n(Cc2ccccc2)c2c1C(c1ccccc1Cl)C1=C(O)c3ccccc3C1=N2 (stereo not drawn),4.08%
18,Cc1ccc2oc(-c3cc(N)ccc3O)nc2c1,5.66%
19,Cc1ccc2c(c1)C(=O)c1ccccc1-2,-4.48%
20,O=c1cccc2n1C[C@H]1C[C@@H]2CN(CC(c2ccccc2)c2ccccc2)C1,-2.48%
21,COc1cc(C)nc(NS(=O)(=O)c2ccc(C)cc2)n1,2.94%
22,CN(CCNC(=O)c1cnn2c(C(F)(F)F)cc(-c3ccccc3)nc12)Cc1ccccc1,0.955%
23,COc1cc(CN2CCN(c3ccc(C(C)=O)cc3)CC2)cc(Br)c1O,-3.8%
24,Cc1c(C(=O)NCCN2CCOCC2)oc2ccc3c(c12)C(O)CC1(CCCCCC1)O3 (stereo not drawn),1.63%
25,CCNC(=O)c1c(NC(=O)c2ccc(C)cc2)sc2c1CCCC2,12%

row,SMILES,% Inhibition @ 10 uM
1,COCCCNC(=O)CSc1[nH]c(-c2ccc(C)cc2)nc1-c1ccc(C)cc1,-3.39%
2,CC(=O)NC1=NC(=O)/C(=C\c2ccc(N(C)C)c(Br)c2)S1,-1.65%
3,COCCCNC(=O)c1c(NC(=O)Cc2coc3ccc(C)cc23)sc2c1CCCC2,-6.04%
4,CC(=O)c1c(C)oc2ccc(NS(=O)(=O)c3ccc(C)cc3)cc12,0.878%
5,C=CCc1c(C)nc(-c2ccccc2)nc1Nc1ccc(C(C)=O)cc1,2.58%
6,Cc1ccc(C)c(OCC(=O)N2CCCCC2)c1,0.54%
7,OCCNC1Cc2cc(Cl)ccc2Sc2ccccc21 (stereo not drawn),-9.24%
8,CCCCNCc1cccn1-c1ccccc1,-1.75%
9,Cc1cc(C)cc(NC(=O)CN(c2ccc(Cl)cc2)S(C)(=O)=O)c1,-1.43%
10,CCN(CC)C(=O)Cn1c(=O)n(Cc2ccccc2)c(=O)c2c(C)c(C(=O)N(CC)CC)sc21,4.3%
11,COc1cc(CNC(=O)C2CCCC2)cc(OC)c1OC,-4.48%
12,CC(C)(C)c1ccc(C(=O)N[C@@H](Cc2cc(Cl)c(O)c(Cl)c2)C(=O)NC2(C#N)CC2)cc1,0.173%
13,COc1ccc(-c2nc(CS(=O)CC(=O)NCc3ccc4c(c3)OCO4)c(C)o2)cc1 (stereo not drawn),0.689%
14,CCOC(=O)N1CCN(C(=O)c2cc3c(O)nc4ccc(C)cc4c3s2)CC1,14.1%
15,N#CCCN(Cc1ccccc1)C(=O)CCC(=O)c1ccc(F)cc1,0.238%
16,O=C1NC(=O)/C(=C\c2cccn2-c2ccc(Br)cc2)N1,-0.178%
17,C=CCSc1nc2c(c(-c3ccc(Br)cc3)c1C#N)C(=O)CC(C)(C)C2,2.23%
18,O=C(c1cccnc1)c1conc1C(=O)c1ccc(Br)cc1,91.9%
19,CCCn1c(=O)c(C(=O)Nc2cccc(Br)c2)c(O)c2ccccc21,0.843%
20,O=C1CC(N2CCN(c3ccccn3)CC2)C(=O)N1c1cccc(Cl)c1 (stereo not drawn),-2.07%
21,COc1ccccc1C(=O)NC1CC(C)(C)Cc2occc21 (stereo not drawn),6.15%
22,Cc1ccccc1S(=O)Cc1ccc(C(=O)N2CCc3ccccc3C2)o1 (stereo not drawn),-1.28%
23,CCOc1ccc(-n2c(SC(CC)C(=O)N(CC)CC)nc3nnc(C)c-3c2N)cc1 (stereo not drawn),4.35%
24,COc1ccc(CNC(=O)C2CCN(S(=O)(=O)c3c(C)noc3C)CC2)cc1,-0.704%
